In PMC5836133 one finds binding signal data, which are given here for 172 sequences.

This is one part of the list. At the low end of the ranking the order means little.

The test deals with T1, GST-NbGlk1(82-244).
T1 sequence: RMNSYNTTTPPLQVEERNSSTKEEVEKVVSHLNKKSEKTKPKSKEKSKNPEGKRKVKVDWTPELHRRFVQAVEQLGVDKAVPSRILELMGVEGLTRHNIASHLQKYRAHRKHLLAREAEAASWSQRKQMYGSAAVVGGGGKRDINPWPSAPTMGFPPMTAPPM
Briefly: protein-binding microarray.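 Further: rank-based score ranging −0.5 to +0.5 with E above 0.45 taken as significant binding.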 Particulars: NbGlk1 is a Golden2-like transcription factor of Nicotiana benthamiana; high values mean tight binding; most listed sequences are background and not binding sites; double strand, one strand shown.
Take AGTTTCTA: the binding signal is -0.0593 E-score.
In turn, AATAACTA returned a binding signal of -0.0153 E-score.
Sequence ATCCGTGC registered a binding signal of 0.154 E-score.
For CACTAAAG the value was 0.0275 E-score; for CAACGGGG, -0.0433 E-score; for AGGAGTAC, -0.146 E-score.
For AAGGGGGT the value was -0.275 E-score; for ATGCTCCG, -0.0984 E-score; for AGCAGTCC, -0.194 E-score.
For ACGCAACA the value was 0.064 E-score; for AAAACCAG, -0.173 E-score.
The sequence ACCTAAAT had a binding signal of 0.222 E-score.
For AGCCTCTC the value was -0.251 E-score; for AGTTGACG, 0.0212 E-score.
Regarding AAATGGAA, the binding signal is -0.00517 E-score.
In the case of AAGATATG, the binding signal turned out to be 0.352 E-score.
For the sequence AAGGACCT, the binding signal was -0.262 E-score.
For ATCACGGG the value was 0.0315 E-score.
The sequence ACTCTGCT gave a binding signal of -0.0847 E-score.
ATCGCTGG yielded a binding signal of 0.126 E-score.
Consider AGGGCAGA, for which the binding signal was -0.124 E-score.
The sequence CAAGCCAG showed a binding signal of -0.186 E-score.
For CAAGTGAC the value was -0.074 E-score.
As to ACGTCAAA, the binding signal is -0.00516 E-score.
In turn, ATGCACTA came in with a binding signal of -0.0453 E-score.
For AGAAATAT the value was 0.362 E-score; for AACGTTGA, -0.00981 E-score; for ACACCCTA, 0.00265 E-score.
For ACCCACCA the value was -0.13 E-score; for CAGAAGTA, -0.0301 E-score; for ACGCGTCA, -0.132 E-score.
ATAGTATG: the binding signal is -0.0605 E-score.
As for CACTATTA, the binding signal was 0.0119 E-score.
Turning to ATTGCCGC, the binding signal is 0.0596 E-score.
For AATTATAT the value was 0.192 E-score; for AGCGATGC, -0.128 E-score.
For ATACTGAT the value was 0.183 E-score.
For AAATGACC the value was -0.113 E-score; for AACAGTAA, 0.125 E-score.
AAACCGAT returned a binding signal of 0.121 E-score.
For AGCTTCGC the value was -0.161 E-score; for ACCTTACT, -0.0889 E-score; for ACGACCCA, -0.171 E-score.
Sequence AACAGTTC displayed a binding signal of -0.144 E-score.
For ACTCGAAT the value was 0.0921 E-score; for AGTTAGCA, 0.0967 E-score.
ATTACGCG: the binding signal came to 0.332 E-score.
For ATTGGCTA the value was -0.0622 E-score; for AAGTACCT, -0.149 E-score; for ACAAGTCG, -0.0745 E-score.
For AGAATCGC the value was 0.377 E-score; for ACGCATGG, -0.144 E-score; for AGGAACCA, -0.0322 E-score.
AGCGAGTC gave a binding signal of -0.14 E-score.
For CACACTCG the value was -0.0894 E-score.
ATGTATCG had a binding signal of -0.133 E-score.
For AATGAGTA, the binding signal was determined as 0.175 E-score.
For ACGGATCG the value was 0.177 E-score; for AGGCGGCA, -0.0993 E-score.
For ATCCTTCC the value was 0.118 E-score; for AACGGGCA, -0.166 E-score; for ACCGACCG, -0.21 E-score.
For AGTTTAGC the value was -0.15 E-score.
For AGATGGCC, the binding signal is -0.207 E-score.
For CACTTTGA the value was -0.159 E-score.
For ATTTTTCC the value was 0.163 E-score; for ATAACTAT, 0.057 E-score; for AAGCTCCC, -0.221 E-score.
For CAACGCCA the value was -0.0514 E-score; for ACACTCAA, 0.0262 E-score; for AGCGCTCA, -0.0754 E-score.
Sequence AAAGTACA came in with a binding signal of 0.0661 E-score.
For ATGCAACA the value was 0.00172 E-score; for ATGAATAA, 0.188 E-score.
For AAGGAACC the value was -0.141 E-score; for AAGACGAA, 0.0412 E-score.
Sequence AACTACCT gave a binding signal of -0.0921 E-score.
ATATTTGC gave a binding signal of 0.338 E-score.
Take AGACCCGC: the binding signal is -0.299 E-score.
For ACCTACAC the value was -0.0683 E-score; for ACCAATCA, -0.0667 E-score.
For AGGCCTTC the value was -0.217 E-score; for ATTATTGC, 0.109 E-score.
For ACGTAGTC, the binding signal is -0.241 E-score.
For ACGACGAC, the binding signal was -0.143 E-score.
For AGACAAGG the value was -0.163 E-score; for ATCCATTC, 0.24 E-score; for ATGATCTA, -0.00774 E-score.
For AATGTCAT, the binding signal was 0.118 E-score.
For AAATGCCA the value was -0.206 E-score; for AGCCGCAG, -0.226 E-score; for AACCGCGG, -0.0715 E-score.
Consider AGTGTACA, for which the binding signal is 0.0236 E-score.
For AATGCCCA the value was -0.059 E-score; for AACTTGAT, 0.0191 E-score; for AATGTCTG, -0.185 E-score.
Take AATTGCGA: the binding signal stood at 0.314 E-score.
For ATTACGAG the value was 0.361 E-score.
For ATTAAAGA the value was 0.135 E-score; for CACCACCC, -0.0112 E-score.
On to ATTAGAAT, for which the binding signal was determined as 0.166 E-score.
Consider AGGTTTGC, for which the binding signal is -0.0248 E-score.
For AAACGTGT the value was -0.0621 E-score.
For ACCTTAAC the value was -0.161 E-score; for AGGCTAAA, -0.0861 E-score.
For AACAATCG the value was 0.112 E-score; for AGCGACAA, -0.145 E-score.
AGTTAAGA returned a binding signal of 0.048 E-score.
For AAGCCACG the value was -0.141 E-score; for ATCCCGTG, 0.109 E-score.
For AAAAGACG, the binding signal was 0.153 E-score.
Take ATTCCACC: the binding signal stood at 0.235 E-score.
AATGTCGG registered a binding signal of 0.00227 E-score.
For CAATAATC the value was 0.207 E-score.
AACCTTTC returned a binding signal of -0.104 E-score.
As for AAGAAGGA, the binding signal was -0.092 E-score.
AGTTACGG gave a binding signal of -0.108 E-score.
The sequence AAATGAGA yielded a binding signal of 0.113 E-score.
Sequence AGGATGCA registered a binding signal of -0.13 E-score.
Consider AAACCCCA, for which the binding signal was -0.272 E-score.
For CAAACGTC the value was -0.0703 E-score.
With ATATGAGG, the binding signal worked out at 0.018 E-score.
For ATTCGGAC the value was 0.0327 E-score; for AACCCCGT, -0.168 E-score; for AATGGCTC, -0.143 E-score.
Regarding ATAACCAC, the binding signal was -0.0206 E-score.
For AGCCGTTG the value was -0.0848 E-score; for AGTTATAG, -0.102 E-score.
Take ATTGAGAA: the binding signal worked out at 0.151 E-score.
On to ACGCCTTC, for which the binding signal is -0.257 E-score.
For ATTGTACC the value was 0.125 E-score; for AAGTCAAG, -0.154 E-score.
For CAACTAGC the value was -0.173 E-score; for AAGGTAAC, -0.119 E-score; for AGGATGTA, -0.0598 E-score.
As to AATCGAAG, the binding signal worked out at 0.285 E-score.
For AGAACATG the value was 0.0757 E-score.
As to ACCCCTGA, the binding signal is -0.146 E-score.
As for ATATATAA, the binding signal came to 0.179 E-score.
For ATCGATAG the value was 0.0926 E-score; for AATTCGGT, 0.127 E-score.
Sequence AAATGGTT yielded a binding signal of -0.0947 E-score.
For AGACGAAC the value was -0.0242 E-score; for ATCCAACA, 0.237 E-score; for AGGGTAAA, 0.00341 E-score.
For AAATAGTT the value was 0.114 E-score.
The sequence ATAGCAGG returned a binding signal of -0.133 E-score.
For AGTCGCGA the value was 0.0157 E-score; for ACAAGCAT, -0.138 E-score; for ACCTGACA, -0.131 E-score.
As to AACTTATC, the binding signal was 0.098 E-score.
For ATCCTGTC the value was 0.258 E-score.
ACCCCCCA returned a binding signal of -0.342 E-score.
For AGATTCGG the value was 0.413 E-score; for AAGCCGCG, -0.135 E-score.
With AATCCAAC, the binding signal was determined as 0.348 E-score.
For AGCACGGA the value was -0.0602 E-score; for ACCCGCGT, -0.194 E-score.
For AATTTCCA the value was 0.266 E-score; for ACACGCGA, 0.0635 E-score.
For the sequence AAGCCCCC, the binding signal is -0.341 E-score.
For AACTACGC the value was -0.0991 E-score; for AATCCGAA, 0.406 E-score.
For the sequence AATCCGGA, the binding signal is 0.42 E-score.
ACCTTTAT came in with a binding signal of 0.0424 E-score.
Regarding ACTTGAAT, the binding signal came out at 0.0362 E-score.
AACTTTAT gave a binding signal of 0.0708 E-score.
In the case of CACACAAC, the binding signal is -0.00267 E-score.
For ATTATGCG the value was 0.162 E-score; for ATTGAGTG, 0.052 E-score.
For AGTTCATG the value was -0.0855 E-score; for ACGGAAGT, -0.143 E-score.
